Screen size: about 220,000 compounds; about 16,000 (7.3%) were called active. The inconclusive results got no clear call from the source; some entries with a clear call stand among them for comparison. The call rests on the fitted dose curve; in most records, active means well fitted inhibition curve with a large enough effect (not every such curve was filed as active); inconclusive means small, poorly fitted or top-dose-only effect, or another doubt; inactive means no such curve, though single readings can be large or run the other way. Potencies of inconclusive entries are left out as doubtful fits.
Target: Aldehyde dehydrogenase 1A1 (Homo sapiens) (UniProt P00352)
Sequence of UniProt P00352 (P00352 whole entry, looked up): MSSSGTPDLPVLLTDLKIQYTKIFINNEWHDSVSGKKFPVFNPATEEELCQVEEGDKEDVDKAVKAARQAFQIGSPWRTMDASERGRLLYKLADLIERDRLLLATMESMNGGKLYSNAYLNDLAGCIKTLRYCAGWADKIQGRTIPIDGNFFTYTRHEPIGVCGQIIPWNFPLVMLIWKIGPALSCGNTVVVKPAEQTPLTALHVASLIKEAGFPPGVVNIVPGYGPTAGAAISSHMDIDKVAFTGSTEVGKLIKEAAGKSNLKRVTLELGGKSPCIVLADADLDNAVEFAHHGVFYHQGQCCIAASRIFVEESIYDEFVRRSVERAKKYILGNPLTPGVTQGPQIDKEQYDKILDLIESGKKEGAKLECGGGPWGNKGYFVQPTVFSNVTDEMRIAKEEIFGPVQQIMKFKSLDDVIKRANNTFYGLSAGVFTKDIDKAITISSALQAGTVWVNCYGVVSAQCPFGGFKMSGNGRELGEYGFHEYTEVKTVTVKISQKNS
Assay: qHTS Assay for Inhibitors of Aldehyde Dehydrogenase 1 (ALDH1A1);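 on activity, negative = inhibition: plate controls were no enzyme wells and a reference inhibitor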
Conditions: Purified ALDH1A1, NADH fluorescence, propionaldehyde substrate; series mostly up to 75.3 µM; activity, negative = inhibition: at the top concentration
Potency means the concentration at half of the fitted maximal effect; tags describe the fitted curve by direction and shape.

| Compound | Potency | activity, negative = inhibition |
| --- | --- | --- |
| CCc1ccccc1N1CCN(S(=O)(=O)c2cc(OC)ccc2OC)CC1 | inconclusive [inhibitor, partial curve] |  |
| Cc1nn(Cc2ccccc2)c2c1C(c1cccc(Cl)c1)C(C#N)=C(N)O2 (configuration not stated) | inconclusive [inhibitor, partial curve, poor fit] |  |
| CCOc1ccc2[nH]c(=O)c(CN(CCO)C(=O)CC)cc2c1 | inconclusive [inhibitor, single point] |  |
| COc1ccc(C(=O)CSc2cc(C)nc3nc(C)nn23)cc1OC | inconclusive [inhibitor, partial curve] |  |
| O=C(Nc1ccc(F)cc1F)N1CCN(c2ncccn2)CC1 | inconclusive [inhibitor, single point] |  |
| O=C(NCC(c1ccco1)N1CCCC1)c1ccccc1F (configuration not stated) |  | inactive: 2.2% |
| Cc1noc(C)c1COC(=O)C1CCN(C(=O)c2ccc(Cl)cc2)CC1 |  | inactive: -8.67% |
| COc1cccc(CC2(CO)CCCN(Cc3ccc(-c4ccco4)cc3)C2)c1 (configuration not stated) | active: 11.2 µM |  |
| O=C(Nc1nc2c(s1)CN(Cc1ccccc1)CC2)C1CCCC1 | inconclusive [inhibitor, single point] |  |
| CC(=O)c1ccc(NCC2COc3ccccc3O2)c([N+](=O)[O-])c1 (configuration not stated) | inconclusive [inhibitor, single point] |  |
| O=c1[nH]c2cc3c(cc2cc1C(c1nnnn1C1CCCC1)N1CCCc2ccccc21)OCCO3 (configuration not stated) |  | inactive: -2.16% |
| COc1ccc(CCNC(=O)CSc2nc3[nH]ncc3c(=O)n2-c2ccccc2OC)cc1OC |  | inactive: 1.02% |
| COc1ccccc1OCCC(=O)OCC(=O)Nc1ccc(S(=O)(=O)N2CCOCC2)cc1 | inconclusive [inhibitor, single point] |  |
| CCOC(=O)c1c(NC(=O)CSc2nnc(CNc3ccc(F)cc3)o2)sc(C(C)=O)c1C | inconclusive [inhibitor, partial curve] |  |
| CC1CCCN(C(=S)SCC(=O)c2cc(Br)cc(Br)c2O)C1 (configuration not stated) | active: 25.1 µM |  |
| Cc1ccc(-c2nnn(CC(=O)NCCc3ccc4c(c3)OCO4)n2)o1 | inconclusive [inhibitor, single point] |  |
| O=C(N/N=C1\C(=O)c2cccc3cccc1c23)c1ccc(O)cc1 | active: 10 µM |  |
| CCOc1ccc(-n2c(N)c(C(=O)NCC3CCCO3)sc2=S)cc1 (configuration not stated) | active: 15.8 µM |  |
| CC1=CC2=C(OC1N(C)C)c1cccc3cccc(c13)C2=O (configuration not stated) | active: 2.24 µM |  |
| COc1cccc(N2CC(C(=O)Nc3ccc(C(=O)OC(C)C)cc3)CC2=O)c1 (configuration not stated) | inconclusive [inhibitor, partial curve, poor fit] |  |
| O=C(O)c1ccc(-n2cccc2)cc1O | inconclusive [inhibitor, single point] |  |
| CC1CCc2nc(NC(=O)Cc3cccs3)sc2C1 (configuration not stated) | active: 20 µM |  |
| Cc1c(C(=O)N2CCOCC2)[nH]c2c1C(=O)CC(c1ccccc1Cl)C2 (configuration not stated) | inconclusive [inhibitor, single point] |  |
| NS(=O)(=O)c1ccc(NC(=S)NC2CCCC2)cc1 | inconclusive [inhibitor, single point] |  |

| Compound | Potency | activity, negative = inhibition |
| --- | --- | --- |
| Oc1ccccc1CNCc1ccccc1O |  | inactive: -6.72% [at 13.5 µM] |
| OCCN(Cc1nc(-c2ccc3c(c2)OCO3)no1)Cc1cccs1 | inconclusive [inhibitor, single point] |  |
| O=C(Cn1cc(C(F)(F)F)ccc1=O)Nc1cccc(S(=O)(=O)N2CCOCC2)c1 |  | inactive: 2.48% |
| COC(=O)C(Cc1ccc(O)cc1)NC(=O)c1ccccc1 (configuration not stated) |  | inactive: 2.76% |
| CCNc1ncc2nc(-c3ccccc3)c(=O)n(CCc3ccccc3)c2n1 | inconclusive [inhibitor, partial curve] |  |
| CC(NC(=O)CSC1=NCCS1)c1ccccc1 (configuration not stated) |  | inactive: -0.546% |
| O=C(Nc1cccc(Cl)c1)Nc1cccc(Cl)c1 | inconclusive [inhibitor, single point] |  |
| CCOC(=O)c1c(C)[nH]c(C(C)=O)c1C | active: 8.91 µM |  |
| C=C(C)COc1ccc(-c2[nH]ncc2Oc2ccccc2OCC)c(O)c1 | active: 1.58 µM |  |
| O=C(O)c1ccc(N2C(=O)CC(SC(=NCc3ccc4c(c3)OCO4)Nc3ccc(F)cc3)C2=O)cc1 (configuration not stated) |  | inactive: 6.43% |
| CC12CC3(C)CC(C)(C1)CC(C(N)=O)(C2)C3 |  | inactive: 10.7% |
| CCN(CCCNC(=O)CCNC(=O)Cn1cnc2ccccc2c1=O)c1cccc(C)c1 | inconclusive [inhibitor, single point] |  |
| COc1ccc(-c2cc(=O)c3c(OC(C)=O)cc(OC(C)=O)cc3o2)cc1 | inconclusive [inhibitor, partial curve] |  |
| Cn1c(C(=O)NCC2CCCO2)cc2c(=O)[nH]c3ccccc3c21 (configuration not stated) | inconclusive [inhibitor, single point] |  |
| COc1ccc(-n2c(C)c3c(OC)cccc(=O)c3c2C)cc1 |  | inactive: 0.0935% |
| CN(Cc1ccco1)c1ncnc2ccc(-c3ccccc3C#N)cc12 | inconclusive [inhibitor, single point] |  |
| COc1ccc(SCc2noc(C(=O)NC(C)C)c2C(=O)O)cc1 | inconclusive [inhibitor, single point] |  |
| O=C(c1ccco1)N1CCN(c2nc(C3CC3)nc3sc4c(c23)CCCC4)CC1 | active: 22.4 µM |  |
| Oc1oc(-c2ccccc2)nc1C=Nc1cccc2ccccc12 | inconclusive [inhibitor, single point] |  |
| Cc1ccccc1C(=O)Nc1ccc(Br)c(C)n1 | inconclusive [inhibitor, partial curve] |  |
| Cc1ccnc(N2CCC(C(=O)NNC(=O)c3ccncc3)CC2)n1 | inconclusive [inhibitor, single point] |  |
| Cc1cnc(CNc2ncnc3ccc(-c4ccccc4C#N)cc23)cn1 |  | inactive: -8.66% |
| COc1ccccc1CNC(=O)c1cn(C)c(=O)c2cc(OC)c(OC)cc12 | inconclusive [inhibitor, partial curve] |  |

From PubChem BioAssay AID1030 (National Center for Advancing Translational Sciences (NCATS), 2008)
